# The supplement of paper PMC8728848
# This is one part of the list.
# B1: Di AAL2 (Agrocybe aegerita) (protein)
# chain: MTSNVITQDLPIPVASRGFADIVGFGLDGVVIGRNAVNLQPFLAVKNFAQNAGGWLTTKHVRLIADTTGTGKGDIVGFGNAGVYVSVNNGKNTFADPPKMVIANFGYDAGGWRVEKHLRYLADIRKIGRADIIGFGEKGVLVSRNNGGLNFGPATLVLKDFGYDAGGWRLDRHLRFLADVTGNGHLDIVGFGDKHVFISRNNGDGTFAPAKSVIDNFCIDAGGWKIGDHPRFVADLTGDGTADIIGCGKAGCWVALNNGGGVFGQVKLVINDFGTDKGWQAAKHPRFIADLTGNGRGDVVGFGNAGVYVALNNGDGTFQSAKLVLKDFGVQQGWTVSKHRRFVVDLTGDGCADIIGFGEKETLVSYNDGKGNFGPVKALTNDFSFSGGKWAPETTVCWMANLDSSRHPAPAPMTSNVITQDLPIPVASRGFADIVGFGLDGVVIGRNAVNLQPFLAVKNFAQNAGGWLTTKHVRLIADTTGTGKGDIVGFGNAGVYVSVNNGKNTFADPPKMVIANFGYDAGGWRVEKHLRYLADIRKIGRADIIGFGEKGVLVSRNNGGLNFGPATLVLKDFGYDAGGWRLDRHLRFLADVTGNGHLDIVGFGDKHVFISRNNGDGTFAPAKSVIDNFCIDAGGWKIGDHPRFVADLTGDGTADIIGCGKAGCWVALNNGGGVFGQVKLVINDFGTDKGWQAAKHPRFIADLTGNGRGDVVGFGNAGVYVALNNGDGTFQSAKLVLKDFGVQQGWTVSKHRRFVVDLTGDGCADIIGFGEKETLVSYNDGKGNFGPVKALTNDFSFSGGKWAPETTVCWMANLDSSRH
# Columns and labels:
# Test in all cases: glycan array binding signal (z-score within array); higher = stronger binding
# Conditions in all cases: glycan notation: IUPAC condensed, linker removed
# [1] = molecular target: Fuc(a1-2)[Gal(a1-3)]Gal(b1-4)GlcNAc(b1-2)Man(a1-3)[Fuc(a1-2)[Gal(a1-3)]Gal(b1-4)GlcNAc(b1-2)Man(a1-6)]Man(b1-4)GlcNAc(b1-4)GlcNAc
# How it was run: (§1)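 The binding signal is a Z-score computed within each array and averaged over linkers. Arrays of the same protein sequence at different concentrations or buffers were also averaged together. Data originate from 3228 arrays in the Consortium for Functional Glycomics database, kept only where the protein sequence was available.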
# [2] = molecular target: Fuc(a1-2)[Gal(a1-3)]Gal(b1-4)GlcNAc(b1-2)Man(a1-3)[Fuc(a1-2)[Gal(a1-3)]Gal(b1-4)GlcNAc(b1-2)Man(a1-6)]Man(b1-4)GlcNAc(b1-4)[Fuc(a1-6)]GlcNAc
# How it was run: as §1
# [3] = molecular target: Fuc(a1-2)[Gal(a1-3)]Gal(b1-4)GlcNAc(b1-3)GalNAc
# How it was run: as §1
# [4] = molecular target: Fuc(a1-2)[Gal(a1-3)]Gal(b1-4)GlcNAc(b1-3)[Fuc(a1-2)[Gal(a1-3)]Gal(b1-4)GlcNAc(b1-6)]GalNAc
# How it was run: as §1
# [5] = molecular target: Fuc(a1-2)[Gal(a1-3)]Gal(b1-4)GlcNAc(b1-6)GalNAc
# How it was run: as §1
# [6] = molecular target: Fuc(a1-2)[Gal(a1-3)]Gal(b1-4)[Fuc(a1-3)]Glc
# How it was run: as §1
# [7] = molecular target: Fuc(a1-2)[Gal(a1-3)]Gal(b1-4)[Fuc(a1-3)]GlcNAc
# How it was run: as §1
# [8] = molecular target: Fuc(a1-2)[Gal(a1-3)]Gal(b1-4)[Fuc(a1-3)]GlcNAc(b1-3)GalNAc
# How it was run: as §1
# [9] = molecular target: Fuc(a1-2)[Gal(a1-4)]Gal(b1-4)GlcNAc
# How it was run: as §1
# [10] = molecular target: Fuc(a1-2)[GalNAc(a1-3)]Gal
# How it was run: as §1
# [11] = molecular target: Fuc(a1-2)[GalNAc(a1-3)]Gal(b1-3)GalNAc(a1-3)[Fuc(a1-2)]Gal(b1-4)GlcNAc
# How it was run: as §1
# [12] = molecular target: Fuc(a1-2)[GalNAc(a1-3)]Gal(b1-3)GalNAc(b1-3)Gal(a1-4)Gal(b1-4)Glc
# How it was run: as §1
# [13] = molecular target: Fuc(a1-2)[GalNAc(a1-3)]Gal(b1-3)GlcNAc
# How it was run: as §1
# [14] = molecular target: Fuc(a1-2)[GalNAc(a1-3)]Gal(b1-3)GlcNAc(b1-2)Man(a1-3)[Fuc(a1-2)[GalNAc(a1-3)]Gal(b1-3)GlcNAc(b1-2)Man(a1-6)]Man(b1-4)GlcNAc(b1-4)GlcNAc
# How it was run: as §1
# [15] = molecular target: Fuc(a1-2)[GalNAc(a1-3)]Gal(b1-3)GlcNAc(b1-2)Man(a1-3)[Fuc(a1-2)[GalNAc(a1-3)]Gal(b1-3)GlcNAc(b1-2)Man(a1-6)]Man(b1-4)GlcNAc(b1-4)[Fuc(a1-6)]GlcNAc
# How it was run: as §1
# [16] = molecular target: Fuc(a1-2)[GalNAc(a1-3)]Gal(b1-3)GlcNAc(b1-3)GalNAc
# How it was run: as §1
# [17] = molecular target: Fuc(a1-2)[GalNAc(a1-3)]Gal(b1-3)GlcNAc(b1-6)GalNAc
# How it was run: as §1
# [18] = molecular target: Fuc(a1-2)[GalNAc(a1-3)]Gal(b1-4)Glc
# How it was run: as §1
# [19] = molecular target: Fuc(a1-2)[GalNAc(a1-3)]Gal(b1-4)GlcNAc
# How it was run: as §1
# [20] = molecular target: Fuc(a1-2)[GalNAc(a1-3)]Gal(b1-4)GlcNAc(b1-2)Man
# How it was run: as §1
# [21] = molecular target: Fuc(a1-2)[GalNAc(a1-3)]Gal(b1-4)GlcNAc(b1-2)Man(a1-3)[Fuc(a1-2)[GalNAc(a1-3)]Gal(b1-4)GlcNAc(b1-2)Man(a1-6)]Man(b1-4)GlcNAc(b1-4)GlcNAc
# How it was run: as §1
# [22] = molecular target: Fuc(a1-2)[GalNAc(a1-3)]Gal(b1-4)GlcNAc(b1-2)Man(a1-3)[Fuc(a1-2)[GalNAc(a1-3)]Gal(b1-4)GlcNAc(b1-2)Man(a1-6)]Man(b1-4)GlcNAc(b1-4)[Fuc(a1-6)]GlcNAc
# How it was run: as §1
# [23] = molecular target: Fuc(a1-2)[GalNAc(a1-3)]Gal(b1-4)GlcNAc(b1-3)Gal(b1-4)GlcNAc
# How it was run: as §1
# [24] = molecular target: Fuc(a1-2)[GalNAc(a1-3)]Gal(b1-4)GlcNAc(b1-3)Gal(b1-4)GlcNAc(b1-3)Gal(b1-4)GlcNAc
# How it was run: as §1
# [25] = molecular target: Fuc(a1-2)[GalNAc(a1-3)]Gal(b1-4)GlcNAc(b1-3)GalNAc
# How it was run: as §1
# [26] = molecular target: Fuc(a1-2)[GalNAc(a1-3)]Gal(b1-4)GlcNAc(b1-3)[Fuc(a1-2)[GalNAc(a1-3)]Gal(b1-4)GlcNAc(b1-6)]GalNAc
# How it was run: as §1
# [27] = molecular target: Fuc(a1-2)[GalNAc(a1-3)]Gal(b1-4)GlcNAc(b1-6)GalNAc
# How it was run: as §1
# [28] = molecular target: Fuc(a1-2)[GalNAc(a1-3)]Gal(b1-4)[Fuc(a1-3)]GlcNAc
# How it was run: as §1
# [29] = molecular target: Fuc(a1-2)[GalNAc(a1-3)]Gal(b1-4)[Fuc(a1-3)]GlcNAc(b1-3)GalNAc
# How it was run: as §1
# [30] = molecular target: Fuc(a1-2)[GalNAc(a1-4)]Gal(b1-4)GlcNAc
# How it was run: as §1
binder,measurement,setting,value
B1,glycan array binding signal (z-score),[1],-0.331
same,glycan array binding signal (z-score),[2],-0.328
same,glycan array binding signal (z-score),[3],-0.336
same,glycan array binding signal (z-score),[4],-0.292
same,glycan array binding signal (z-score),[5],-0.32
same,glycan array binding signal (z-score),[6],-0.344
same,glycan array binding signal (z-score),[7],-0.335
same,glycan array binding signal (z-score),[8],-0.331
same,glycan array binding signal (z-score),[9],-0.338
same,glycan array binding signal (z-score),[10],0.095
same,glycan array binding signal (z-score),[11],-0.258
same,glycan array binding signal (z-score),[12],-0.225
same,glycan array binding signal (z-score),[13],-0.172
same,glycan array binding signal (z-score),[14],-0.134
same,glycan array binding signal (z-score),[15],-0.311
same,glycan array binding signal (z-score),[16],-0.261
same,glycan array binding signal (z-score),[17],-0.309
same,glycan array binding signal (z-score),[18],0.055
same,glycan array binding signal (z-score),[19],-0.018
same,glycan array binding signal (z-score),[20],-0.167
same,glycan array binding signal (z-score),[21],-0.125
same,glycan array binding signal (z-score),[22],-0.325
same,glycan array binding signal (z-score),[23],0.422
same,glycan array binding signal (z-score),[24],0.209
same,glycan array binding signal (z-score),[25],-0.3
same,glycan array binding signal (z-score),[26],-0.246
same,glycan array binding signal (z-score),[27],-0.186
same,glycan array binding signal (z-score),[28],-0.252
same,glycan array binding signal (z-score),[29],-0.323
same,glycan array binding signal (z-score),[30],-0.215
